Experimental data: the supplement of paper PMC12217912
The other results are listed elsewhere or left out. The full chains were built here from the parent and the listed change. Values near 0.05 are background.

B1: TEV protease; numbered along this chain (parent)
chain: MGESLFKGPRDYNPISSSICHLTNESDGHTTSLYGIGFGPFIITNKHLFRRNNGTLVVQSLHGVFKVKDTTTLQQHLVDGRDMIIIRMPKDFPPFPQKLKFREPQREERICLVTTNFQTKSMSSMVSDTSCTFPSGDGIFWKHWIQTKDGQCGSPLVSTRDGFIVGIHSASNFTNTNNYFTSVPKNFMELLTNQEAQQWVSGWRLNADSVLWGGHKVFMVKPEEPFQPVKEATQL

Variants of: B1
Assay: raw area under fraction-flipped curve 0-4 h after induction (AUC4h, not background-subtracted), DNA-recorder readout of cleavage of the substrate (dimensionless); higher = more cleavage of the substrate by the protease variant
Settings: temperature: 34 °C; time window: 0-4 h after rhamnose induction
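Also: Bxb1 expression induced with 0.2% (w/v) L-rhamnose at OD600 near 0.5, cultures sampled hourly, flipped fraction per protease–substrate barcode pair counted by paired-end Illumina sequencing.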

Variant	area with substrate ENCYFQS	area with substrate ENDYFQS	area with substrate ENEYFQS	area with substrate ENFYFQS	area with substrate ENHYFQS	area with substrate ENKYFQS	area with substrate ENNYFQS	area with substrate ENPYFQS	area with substrate ENQYFQS	area with substrate ENRYFQS
A232L	0.0576	0.0635	0.0608	0.0558	0.0574	0.0534	0.0447	0.0624	0.0652	0.0465
A232E	0.0655	0.0614	0.0534	0.0639	0.0688		0.059	0.0521	0.0671	0.0373
E223Q	0.0714		0.061				0.0557		0.0563	
K66S		0.0586	0.0616		0.0728	0.066	0.0699	0.0586	0.0544	
P104K		0.0572	0.0641	0.0531	0.0483					
E224I		0.0595		0.0833	0.0602		0.0898		0.0594	0.0479
E224L	0.0695	0.0536		0.0659	0.0384		0.0522			
K216M					0.0586	0.0617		0.075		
K216V	0.066	0.0638	0.0607	0.0517			0.0567		0.0589	0.0495
N206F	0.0683	0.0524	0.0532	0.0531	0.0444	0.0396	0.0281	0.0603	0.0571	
R160T	0.0538		0.0527						0.0618	
D208H		0.0526			0.056	0.0872	0.0405			0.0721
D208Y	0.0649	0.0565	0.0612	0.0584	0.0676	0.0802		0.0583	0.0487	0.0537
D208L	0.0583	0.0753	0.0688		0.0736		0.0534		0.0605	0.0382
I167E				0.0566			0.0385		0.0649	
V200G			0.0416					0.092	0.0358	
V200F		0.0652						0.0723		
V200Q			0.058							
N177Y	0.0581	0.0645					0.0665	0.0543	0.0681	
H215Q	0.0586	0.0634	0.0619		0.0588		0.034	0.0278	0.0593	0.0476
H215V	0.0584	0.0653	0.0487	0.0588			0.0668	0.0395	0.0637	0.0544
S209I	0.0834		0.0565							
G8C		0.0522			0.0378		0.0921			
G8I						0.0758	0.0451		0.0608	
K120I			0.0614	0.0743		0.0576	0.0631	0.0535	0.0764	0.0403
G35E		0.0321		0.0396	0.0361				0.0331	
G35K								0.0487	0.0534	0.0404
D149R		0.0557	0.0596				0.0473		0.047	
D128G									0.0522	
D128S			0.0555			0.0742	0.056	0.0528	0.0645	0.0504

Same assay, conditions: temperature: 34 °C; time window: 0-4 h after rhamnose induction

Variant	area with substrate ENSYFQS	area with substrate ENTYFQS	area with substrate ENVYFQS	area with substrate ENWYFQS	area with substrate ENYYFQS	area with substrate ENIYFQS	area with substrate ENMYFQS	area with substrate ENGYFQS
A232L	0.0829	0.0638	0.0626	0.0037	0.0453			
A232E		0.0628	0.107		0.0709	0.0872		
E223Q	0.0759	0.064	0.0815				0.0651	
K66S	0.0579				0.0921	0.112	0.092	0.0585
P104K			0.0479				0.0618	
E224I	0.0847	0.0617			0.0371			0.0685
E224L	0.0555	0.0693	0.0593			0.099	0.0834	
K216M		0.0712			0.0601		0.0575	
K216V						0.075	0.159	0.0615
N206F	0.0696		0.068		0.0726			0.0537
R160T	0.0418	0.0593	0.0844	0.024	0.0558	0.117		0.052
D208H		0.0773			0.0606		0.0774	
D208Y	0.0568	0.044	0.0638		0.0455	0.0768	0.0736	0.0614
D208L		0.0728					0.0584	
I167E	0.0516	0.0439		0.025	0.0309			
V200G		0.0613						
V200F					0.0557	0.0496	0.0623	0.0379
V200K			0.064					
V200Q	0.0467							0.0449
N177Y	0.0785		0.064					
H215Q	0.0558	0.0572	0.0634	0.048			0.0511	0.0647
H215V	0.0529	0.0788			0.0473	0.0703	0.0544	
S209I	0.0735						0.0833	
G8C		0.055						
G8I	0.0621						0.0437	
K120I			0.0716			0.12		0.0588
G35E	0.0446					0.0416		
G35K				0.0227				
D149R	0.0587							0.0434
D128S	0.0629	0.0591		0.0641		0.131		0.0663
